Laboratory results from the supplement of paper PMC11741623.
The other results are listed elsewhere or left out. Interaction screen of human proteins with wild-type SARS-CoV-2 proteins by split-DHFR complementation in yeast, 1 µg/mL methotrexate. Value = fitness of the pair (three or more lineages) minus that of the viral protein without a human partner, on a scale set by negative (0) and fused positive (1) controls, mean of up to three cultures; higher = more likely to interact. Active = false discovery rate below 0.05 (one-sided t-test) in at least one culture. Nearly all pairs are not hits, and differences among them are mostly noise (correlation between cultures about 0.3); most hits were seen in one culture only. Human sequences are the Swiss-Prot entries looked up by gene name; the clone may be another isoform. NSP2 values were corrected by the authors for a growth advantage. Listed are human proteins with a hit and a random twelfth of the others.

How the values were obtained:
Assay in all cases: yeast fitness gain over the viral ORF with no human partner (scaled fitness); higher = more likely to interact
[1] = target: SARS-CoV-2 E
Description: (§1)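 Split mouse DHFR complementation in pooled diploid yeast: human ORFeome clones carry one fragment and viral ORFs the other; barcoded lineages compete in 1 µg/mL methotrexate and fitness is read by barcode sequencing in up to three cultures.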

[2] = target: SARS-CoV-2 M
Description: as §1

[3] = target: SARS-CoV-2 NSP1
Description: as §1

[4] = target: SARS-CoV-2 NSP10
Description: as §1

[5] = target: SARS-CoV-2 NSP12
Description: as §1

[6] = target: SARS-CoV-2 NSP13
Description: as §1

[7] = target: SARS-CoV-2 NSP15
Description: as §1

[8] = target: SARS-CoV-2 NSP16
Description: as §1

[9] = target: SARS-CoV-2 NSP2
Description: as §1

[10] = target: SARS-CoV-2 NSP5
Description: as §1

[11] = target: SARS-CoV-2 NSP7
Description: as §1

[12] = target: SARS-CoV-2 NSP8
Description: as §1

[13] = target: SARS-CoV-2 NSP9
Description: as §1

[14] = target: SARS-CoV-2 ORF10
Description: as §1

[15] = target: SARS-CoV-2 ORF3A
Description: as §1

[16] = target: SARS-CoV-2 ORF3B
Description: as §1

[17] = target: SARS-CoV-2 ORF6
Description: as §1

[18] = target: SARS-CoV-2 ORF7A
Description: as §1

[19] = target: SARS-CoV-2 ORF7B
Description: as §1

[20] = target: SARS-CoV-2 ORF8
Description: as §1

[21] = target: SARS-CoV-2 ORF9B
Description: as §1

[22] = target: SARS-CoV-2 ORF9Bwu (the 73-codon ORF)
Description: as §1

[23] = target: SARS-CoV-2 S
Description: as §1

[24] = target: SARS-CoV-2 N
Description: as §1

[25] = target: SARS-CoV-2 NSP14
Description: as §1

[26] = target: SARS-CoV-2 NSP4
Description: as §1

[27] = target: SARS-CoV-2 NSP6
Description: as §1

Measured: yeast fitness gain

B1: BOC, Q9BWV1 (protein)
chain: MLRGTMTAWRGMRPEVTLACLLLATAGCFADLNEVPQVTVQPASTVQKPGGTVILGCVVEPPRMNVTWRLNGKELNGSDDALGVLITHGTLVITALNNHTVGRYQCVARMPAGAVASVPATVTLANLQDFKLDVQHVIEVDEGNTAVIACHLPESHPKAQVRYSVKQEWLEASRGNYLIMPSGNLQIVNASQEDEGMYKCAAYNPVTQEVKTSGSSDRLRVRRSTAEAARIIYPPEAQTIIVTKGQSLILECVASGIPPPRVTWAKDGSSVTGYNKTRFLLSNLLIDTTSEEDSGTYRCMADNGVGQPGAAVILYNVQVFEPPEVTMELSQLVIPWGQSAKLTCEVRGNPPPSVLWLRNAVPLISSQRLRLSRRALRVLSMGPEDEGVYQCMAENEVGSAHAVVQLRTSRPSITPRLWQDAELATGTPPVSPSKLGNPEQMLRGQPALPRPPTSVGPASPQCPGEKGQGAPAEAPIILSSPRTSKTDSYELVWRPRHEGSGRAPILYYVVKHRKVTNSSDDWTISGIPANQHRLTLTRLDPGSLYEVEMAAYNCAGEGQTAMVTFRTGRRPKPEIMASKEQQIQRDDPGASPQSSSQPDHGRLSPPEAPDRPTISTASETSVYVTWIPRGNGGFPIQSFRVEYKKLKKVGDWILATSAIPPSRLSVEITGLEKGTSYKFRVRALNMLGESEPSAPSRPYVVSGYSGRVYERPVAGPYITFTDAVNETTIMLKWMYIPASNNNTPIHGFYIYYRPTDSDNDSDYKKDMVEGDKYWHSISHLQPETSYDIKMQCFNEGGESEFSNVMICETKARKSSGQPGRLPPPTLAPPQPPLPETIERPVGTGAMVARSSDLPYLIVGVVLGSIVLIIVTFIPFCLWRAWSKQKHTTDLGFPRSALPPSCPYTMVPLGGLPGHQASGQPYLSGISGRACANGIHMNRGCPSAAVGYPGMKPQQHCPGELQQQSDTSSLLRQTHLGNGYDPQSHQITRGPKSSPDEGSFLYTLPDDSTHQLLQPHHDCCQRQEQPAAVGQSGVRRAPDSPVLEAVWDPPFHSGPPCCLGLVPVEEVDSPDSCQVSGGDWCPQHPVGAYVGQEPGMQLSPGPLVRVSFETPPLTI
inactive: [1] -0.00555 | [2] -0.125 | [3] -0.0461 | [4] -0.0989 | [5] -0.0222 | [6] -0.0411 | [7] 0.0554 | [8] -0.0461 | [9] -0.113 | [10] 0.118 | [11] 0.0905 | [12] 0.0336 | [13] 0.0491 | [14] 0.0357 | [15] 0.058 | [16] 0.0259 | [17] -0.132 | [18] -0.0504 | [19] 0.00531 | [20] -0.0868 | [21] 0.033 | [22] 0.0609 | [23] -0.0753

B2: GPR83, Q9NYM4 (protein)
chain: MVPHLLLLCLLPLVRATEPHEGRADEQSAEAALAVPNASHFFSWNNYTFSDWQNFVGRRRYGAESQNPTVKALLIVAYSFIIVFSLFGNVLVCHVIFKNQRMHSATSLFIVNLAVADIMITLLNTPFTLVRFVNSTWIFGKGMCHVSRFAQYCSLHVSALTLTAIAVDRHQVIMHPLKPRISITKGVIYIAVIWTMATFFSLPHAICQKLFTFKYSEDIVRSLCLPDFPEPADLFWKYLDLATFILLYILPLLIISVAYARVAKKLWLCNMIGDVTTEQYFALRRKKKKTIKMLMLVVVLFALCWFPLNCYVLLLSSKVIRTNNALYFAFHWFAMSSTCYNPFIYCWLNENFRIELKALLSMCQRPPKPQEDRPPSPVPSFRVAWTEKNDGQRAPLANNLLPTSQLQSGKTDLSSVEPIVTMS
inactive: [1] -0.0269 | [2] -0.108 | [24] 0.00371 | [3] 0.00572 | [4] 0.0428 | [5] 0.0362 | [6] 0.0203 | [25] 0.0273 | [7] 0.0118 | [8] 0.0542 | [9] -0.0912 | [26] 0.017 | [10] 0.00269 | [27] 0.0435 | [11] 0.0625 | [12] 0.0204 | [13] 0.03 | [14] -0.0299 | [15] -0.02 | [16] 0.00969 | [17] 0.0263 | [18] -0.00306 | [19] 0.0169 | [20] -0.0248 | [21] -0.00571 | [22] 0.0516 | [23] 0.0253

B3: KCNS3, Q9BQ31 (protein)
chain: MVFGEFFHRPGQDEELVNLNVGGFKQSVDQSTLLRFPHTRLGKLLTCHSEEAILELCDDYSVADKEYYFDRNPSLFRYVLNFYYTGKLHVMEELCVFSFCQEIEYWGINELFIDSCCSNRYQERKEENHEKDWDQKSHDVSTDSSFEESSLFEKELEKFDTLRFGQLRKKIWIRMENPAYCLSAKLIAISSLSVVLASIVAMCVHSMSEFQNEDGEVDDPVLEGVEIACIAWFTGELAVRLAAAPCQKKFWKNPLNIIDFVSIIPFYATLAVDTKEEESEDIENMGKVVQILRLMRIFRILKLARHSVGLRSLGATLRHSYHEVGLLLLFLSVGISIFSVLIYSVEKDDHTSSLTSIPICWWWATISMTTVGYGDTHPVTLAGKLIASTCIICGILVVALPITIIFNKFSKYYQKQKDIDVDQCSEDAPEKCHELPYFNIRDIYAQRMHTFITSLSSVGIVVSDPDSTDASSIEDNEDICNTTSLENCTAK
inactive: [1] 0.0187 | [24] 0.0211 | [26] 0.0176

B4: ACSM1, Q08AH1 (protein)
chain: MQWLMRFRTLWGIHKSFHNIHPAPSQLRCRSLSEFGAPRWNDYEVPEEFNFASYVLDYWAQKEKEGKRGPNPAFWWVNGQGDEVKWSFREMGDLTRRVANVFTQTCGLQQGDHLALMLPRVPEWWLVAVGCMRTGIIFIPATILLKAKDILYRLQLSKAKGIVTIDALASEVDSIASQCPSLKTKLLVSDHSREGWLDFRSLVKSASPEHTCVKSKTLDPMVIFFTSGTTGFPKMAKHSHGLALQPSFPGSRKLRSLKTSDVSWCLSDSGWIVATIWTLVEPWTAGCTVFIHHLPQFDTKVIIQTLLKYPINHFWGVSSIYRMILQQDFTSIRFPALEHCYTGGEVVLPKDQEEWKRRTGLLLYENYGQSETGLICATYWGMKIKPGFMGKATPPYDVQVIDDKGSILPPNTEGNIGIRIKPVRPVSLFMCYEGDPEKTAKVECGDFYNTGDRGKMDEEGYICFLGRSDDIINASGYRIGPAEVESALVEHPAVAESAVVGSPDPIRGEVVKAFIVLTPQFLSHDKDQLTKELQQHVKSVTAPYKYPRKVEFVSELPKTITGKIERKELRKKETGQM
inactive: [1] -0.0979 | [2] 0.0292 | [24] -0.0761 | [3] 0.0475 | [4] -0.0741 | [5] -0.0308 | [6] -0.0531 | [25] -0.409 | [7] -0.0629 | [8] -0.0587 | [9] -0.153 | [10] 0.0536 | [27] -0.0669 | [11] -0.0397 | [12] 0.0205 | [13] 0.09 | [14] 0.0451 | [15] -0.0266 | [16] -0.1 | [17] -0.0174 | [18] 0.0101 | [19] 0.00637 | [20] -0.0145 | [21] -0.0518 | [22] -0.0891 | [23] -0.0505
